Laboratory results published in PubChem BioAssay AID686970 (National Center for Advancing Translational Sciences (NCATS), 2013).
In all, about 360,000 compounds went through this assay and about 6,000 (1.7%) were called active. The inconclusive results got no clear call from the source; some entries with a clear call stand among them for comparison. Calls follow the shape of the dose curve; as a rule, active = well fitted cell-killing curve with a large enough effect; inconclusive = small, poorly fitted or top-dose-only effect, or effect the other way; inactive = flat fitted curve, though single readings scatter. No potency is given beside an inconclusive call; the fits are too rough.

test: qHTS for induction of synthetic lethality in tumor cells producing 2HG: qHTS for the HT-1080-NT fibrosarcoma cell line; conditions: HT-1080-NT fibrosarcoma viability, CellTiter-Glo ATP luminescence, 48 h; activity, negative = less viability: at 46.1 µM (top of the series) unless noted;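 also: NT is the 2HG producing partner of a matched IDH1 knockdown line; nearly all actives have a fitted effect of over 55% in size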;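 as to activity, negative = less viability: 0% = DMSO-treated cells and -100% = media-only wells without cells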
Outline: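 Toxicity toward the 2HG-producing NT line was scored as %Activity, normalised to DMSO and no-cell wells, from CellTiter-Glo luminescence after 48 hours' treatment.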
Potency is read from the fitted curve at half-maximal effect; tags tell the direction and shape of the fitted curve.

SMILES | Potency | activity, negative = less viability
CC(O)CNCCCCOc1ccc(OCc2ccccc2)cc1 (configuration not stated) | inconclusive [cytotoxic, partial curve, poor fit] | –
COC(=O)c1ccc2c(=O)n(Cc3ccco3)c(SCC(=O)Nc3cc(C)on3)nc2c1 | – | inactive: 8.34%
C=CCN1/C(=C(\C#N)C2=NS(=O)(=O)c3ccccc32)N(C)c2ccccc21 | active: 12.6 µM | –
COc1cc(OC)c(OC)cc1CCC(C)NCCC(c1ccccc1)c1ccccc1 (configuration not stated) | inconclusive [cytotoxic, single point] | –
O=C(/C=C/c1ccccc1O)c1ccco1 | inconclusive [cytotoxic, single point] | –
Cc1ccc(/C=N/NC(=O)c2c(C)nc3ccc(Br)cn23)cc1 | active: 1.3 µM | –
Cc1ccc(S(=O)(=O)N(CC(=O)N=Nc2c(O)[nH]c3ccccc23)c2cccc(C)c2)cc1 | inconclusive [cytotoxic, single point] | –
COc1ccc(CNC(=O)c2sc(=O)n(Cc3ccc(-c4ccccc4)cc3)c2C)cc1OC | – | inactive: -11.5%
C[C@@H]1CN([C@H](C)CO)S(=O)(=O)c2ccc(C#Cc3ccccc3F)cc2O[C@@H]1CN(C)C(=O)Cc1ccccc1 | inconclusive [cytotoxic, single point] | –
CCN(CC)C(=S)SCC(=O)c1ccc(Br)cc1 | – | inactive: -0.883%
Cc1ccc(S(=O)(=O)N2c3cc(C)ccc3OCC2C(C)(C)C)cc1 (configuration not stated) | inconclusive [cytotoxic, single point] | –
CC(C)CN(C(=O)c1cc(Cl)nc2ccccc12)c1c(N)n(Cc2ccccc2)c(=O)[nH]c1=O | – | inactive: -2.48%
COc1ccc(C(=O)Nc2nnc(-c3cccs3)s2)cc1 | – | inactive: -25.9%
Cc1ccccc1C(=O)NC1CCN(Cc2nnnn2CCc2ccccc2)CC1 | inconclusive [rising, single point] | –
CC(C)Oc1cccc(C(=O)Nc2ccc(CN3CCOCC3)cc2)c1 | inconclusive [cytotoxic, single point] | –
Cc1ccc(S(=O)(=O)N(C)CC(=O)Nc2ccncc2)cc1 | – | inactive: 5.48%
COCCNC(=O)C1CCCN(Cc2ccccc2Cl)CC1 (configuration not stated) | inconclusive [rising, single point] | –
O=C(CCN(CCO)Cc1ccccc1)Nc1ccc(Br)cc1 | inconclusive [cytotoxic, single point] | –
COc1ccc(C(=O)Nc2ccc(C(=O)O)cc2NC(=O)c2ccc(OC)cc2)cc1 | – | inactive: -6.1%
CC(=O)Nc1ccc(NC(=O)c2ccc(CN3CCc4ccccc4C3)cc2)cc1 | inconclusive [cytotoxic, single point] | –
Nc1ncnc2nn(C3OC(CO)C(O)C3O)nc12 (configuration not stated) | inconclusive [cytotoxic, partial curve] | –
CCOC(=O)N1CCN(S(=O)(=O)c2ccc(C(=O)Nc3ccc(F)cc3F)cc2)CC1 | active: 1.78 µM | –
O=C(Nc1nccs1)c1cccc(N2C(=O)c3cccc4c([N+](=O)[O-])ccc(c34)C2=O)c1 | active: 20.6 µM | –
CC1(C)CC2CC(C)(CN2/C=N/c2sc3c(c2C#N)CC(C)(C)NC3(C)C)C1 (configuration not stated) | inconclusive [cytotoxic, single point] | –

SMILES | Potency | activity, negative = less viability
CCOC(=O)N1CCN(Cc2nc3ccc([N+](=O)[O-])cc3c(=O)n2-c2ccccc2F)CC1 | inconclusive [cytotoxic, single point] | –
O=C(O)C1=C(C(=O)Nc2cccc(C(F)(F)F)c2)CCCC1 | inconclusive [rising, partial curve] | –
Cc1ccc(CNC(=O)Nc2ccccc2)n1C | – | inactive: 0.617%
NNC(=O)c1cc2ccccc2[nH]1 | inconclusive [cytotoxic, partial curve] | –
CCn1nc(C)c(CNC(=O)c2ccc(OC3CCN(Cc4ccccn4)CC3)cc2)c1C | inconclusive [cytotoxic, full curve] | –
C[n+]1c2n(c3ccccc31)N=C(c1ccc(-c3ccccc3)cc1)CS2 | inconclusive [cytotoxic, partial curve] | –
COC(=O)[C@@H](NCc1cccc(CN[C@H](C(=O)OC)C(C)C)c1)C(C)C | – | inactive: 4.35%
COc1ccc(CCNS(=O)(=O)c2cccc([N+](=O)[O-])c2)cc1OC | – | inactive: -6.92%
CSc1nc(Oc2ccc(Cl)cc2)c2sccc2n1 | – | inactive: 14.7%
C[C@H]1CN([C@@H](C)CO)S(=O)(=O)c2ccc(Br)cc2O[C@H]1CN(C)Cc1ccccc1F | – | inactive: -14.3%
CN(C)CCNC(=O)c1cccc(-c2cnc3c(NC=O)cc(-c4cccc(C(F)(F)F)c4)cn23)c1 | active: 20.6 µM | –
COc1ccc(-c2csc(N3CCC(C(N)=O)(N4CCCCC4)CC3)n2)cc1 | inconclusive [cytotoxic, single point] | –
C[C@]12c3[nH]c4cc(-c5ccco5)ccc4c3CCN1C(=O)[C@@H](CC(=O)NCc1cccc(C(F)(F)F)c1)C[C@@H]2C(=O)N1CCCCC1 | inconclusive [cytotoxic, single point] | –
COCCNC(=O)/C(C#N)=C/c1cccc(OCc2ccccc2)c1 | inconclusive [cytotoxic, single point] | –
O=C(Nc1cccc2c1CCCC2)c1cc([N+](=O)[O-])ccc1Cl | active: 16.4 µM | –
OC(COc1ccc2c(c1)OCO2)CN1CCc2ccccc2C1 (configuration not stated) | – | inactive: -0.497%
CCCS(=O)(=O)NC(=O)C1(C)CCCN(C(=O)COCc2ccccc2)C1 (configuration not stated) | inconclusive [rising, partial curve] | –
O=C(Cc1nc2ccccc2[nH]1)c1cccc([N+](=O)[O-])c1 | – | inactive: 1.54%
Cc1ccc(C)n1NC(=O)c1ccccc1Cl | – | inactive: 4.62%
O=C1C(Sc2ccccc2)=C[C@@]2(O)CC[C@@H](O)[C@]1(Sc1ccccc1)[C@H]2O | inconclusive [cytotoxic, single point] | –
CCc1ccc(NC(=O)C[n+]2cc(-c3ccc(C)cc3)n3c2CCC3)cc1 | inconclusive [cytotoxic, single point] | –
COC(=O)c1ccc2c(c1C(=O)OC)CN(S(=O)(=O)C(C)(C)C)[C@H]2CCO | – | inactive: 7.19%
CCOc1cc(C2NC(=O)NC(C)=C2C(=O)NCc2ccccc2)c(Cl)cc1O (configuration not stated) | – | inactive: -2.73% [at 9.24 µM]
Cc1nc(Nc2ccc(Cl)c(Cl)c2)sc1C(=O)Nc1ccccc1 | inconclusive [cytotoxic, single point] | –

SMILES | Potency | activity, negative = less viability
CC(C)(C)C1CCc2c(sc(NC(=O)c3ccco3)c2C(N)=O)C1 (configuration not stated) | – | inactive: -0.987%
CC(Nc1nc(-c2ccc(Cl)cc2)cs1)c1nc2cc(Cl)c(N3CCCCC3)cc2n1CCOCCO (configuration not stated) | inconclusive [cytotoxic, single point] | –
Cc1ccc2nc(-c3ccc(NC(=O)COC(=O)c4ccco4)cc3)sc2c1 | inconclusive [cytotoxic, single point] | –
O=C(CSc1nnc(-c2ccc(O)cc2)n1Cc1ccco1)c1cccs1 | – | inactive: 5.36%
Cc1cc(N2CCOCC2)nc2ccc(NC(=O)CCC(=O)N3CCN(c4ccccc4F)CC3)cc12 | inconclusive [cytotoxic, single point] | –
CN(C)CCNc1ncnc2c1cnn2-c1ccc(Cl)cc1 | active: 20.6 µM | –
COCCn1c(SCC(=O)Nc2ccccc2)nnc1-c1ccoc1C | – | inactive: 0.574%
Cc1cc(NC(=O)c2oc3ccccc3c2C)ccc1-n1cnnn1 | inconclusive [cytotoxic, single point] | –
Cc1cccc(Sc2c(C=O)c3ccccc3n2C)c1 | inconclusive [cytotoxic, single point] | –
COc1ccc(-c2nc(C(N)=O)c3[nH]c(=O)n(-c4cccc(Cl)c4)c3n2)cc1OC | inconclusive [cytotoxic, single point] | –
OCC1(Cc2cccc(C(F)(F)F)c2)CCN(Cc2cc3ccccc3o2)CC1 | active: 20.6 µM | –
CCCC(=O)NC(c1ccc(C)cc1)c1ccc2cccnc2c1O (configuration not stated) | inconclusive [cytotoxic, full curve, poor fit] | –
Cc1c(C)c(C)c2[nH]c(-c3ccc4c(c3)OCO4)nc2c1C | inconclusive [cytotoxic, single point] | –
COc1cc2c(cc1OC)C(C)N(C(=O)Nc1cc(C)cc(C)c1)CC2 (configuration not stated) | active: 6.51 µM | –
Cc1cccc(NS(=O)(=O)c2ccc(-c3cnc(C4CC4)o3)cc2)c1 | active: 5.17 µM | –
CCCCCCCCNc1ccccc1S(=O)(=O)NCc1ccccc1 | inconclusive [cytotoxic, partial curve] | –
CCOc1cc(-c2cc(-c3ccc(N)cc3)nc(N)c2C#N)ccc1O | inconclusive [cytotoxic, single point] | –
COc1cc(NC(=O)c2ccco2)c(OC)cc1NC(=O)CSc1nnc(-c2cccs2)n1C | inconclusive [cytotoxic, single point] | –
CCc1ccc2nc(NC(=O)c3cc(C)on3)sc2c1 | active: 9.2 µM | –
COCCNc1nc(NCCNC(C)=O)c2sc(-c3ccccc3)cc2n1 | inconclusive [cytotoxic, single point] | –
COc1cccc(N(C(=O)c2snc(C(N)=O)c2N)C(C(=O)NCC2CCCO2)c2c[nH]c3ccccc23)c1 (configuration not stated) | – | inconclusive: -27.3% [cytotoxic]
O=C(NCCO)C(=O)NCC1OCCCN1S(=O)(=O)c1cc(F)ccc1F (configuration not stated) | – | inactive: 6.55%
CCC(=O)Nc1ccc2c(c1)nc1n2CCSC1 | – | inconclusive: 31.1%
CC(=O)NC(CC(=O)NNC(=O)c1cc2ccccc2cc1O)c1ccccc1 (configuration not stated) | inconclusive [cytotoxic, single point] | –
